US20260055188A1 (SHENGHE CHINA BIOPHARMACEUTICAL, published 2026)

T1: human CD24 on MCF-7 tumor cells (human, UniProt P25063 27-59)
T1 construct: whole, on cells; also called CD24 protein; MCF-7 tumor cells with high expression of human CD24
T1 chain (looked up): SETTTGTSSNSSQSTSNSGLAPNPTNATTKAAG

T2: Human-TNFR2-His (manufacturer: SINO, CAT: 10417-H08H) (human, UniProt P20333 23-257)
T2 construct: Bought protein; also called human TNFR2 protein; TNFR2 protein; not shown: His tag
T2 sequence (looked up): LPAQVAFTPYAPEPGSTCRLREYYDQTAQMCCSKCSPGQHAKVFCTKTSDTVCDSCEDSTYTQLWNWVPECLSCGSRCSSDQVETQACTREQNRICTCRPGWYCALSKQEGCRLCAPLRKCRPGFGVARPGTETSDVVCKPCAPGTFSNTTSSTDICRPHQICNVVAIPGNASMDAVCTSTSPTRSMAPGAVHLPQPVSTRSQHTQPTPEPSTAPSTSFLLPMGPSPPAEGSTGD

B1: TD-G (bispecific antibody, human IgG1, kappa)
light: DIVMTQSPSSLAVSLGERATINCKSSQSLLYSNDQKNYLAWYQQKPGQSPKLLIYWASTRESGVPDRFSGSGSGTDFTLTISSLQAEDVAVYYCQQYFIYPLTFGGGTKLELKRTVAAPSVFIFPPSDEQLKSGTASVVCLLNNFYPREAKVQWKVDNALQSGNSQESVTEQDSKDSTYSLSSTLTLSKADYEKHKVYACEVTHQGLSSPVTKSFNRGECGGGGSGGGGSEVQLVESGGGLVQPGGSLRLSCAASGSRLDYYAVAWFRQAPGKEREEVSCITYSGGSTNYAESVKGRFTISRDNSKNTLYLQMNSLRAEDTAVYYCTTEPYGSSCPLSGYDTWGQGTLVTVSS
heavy: EVQLQESGPGLVKPSQTLSLTCTVSGYSITSGYTWHWIRQFPGNKLEWIGHIQYTGNTKYNPSLESRITISRDTSKNQFSLKLSSVTAADTATYYCARGSTNSNDYWGQGTLVTVSS[not shown - human IgG1 constant region]
notes: also called antibody TD-G
B2: TD-H (bispecific antibody, human IgG1, kappa)
light: EVQLVESGGGLVQPGGSLRLSCAASGSRLDYYAVAWFRQAPGKEREEVSCITYSGGSTNYAESVKGRFTISRDNSKNTLYLQMNSLRAEDTAVYYCTTEPYGSSCPLSGYDTWGQGTLVTVSSGGGGSGGGGSGGGGSDIVMTQSPSSLAVSLGERATINCKSSQSLLYSNDQKNYLAWYQQKPGQSPKLLIYWASTRESGVPDRFSGSGSGTDFTLTISSLQAEDVAVYYCQQYFIYPLTFGGGTKLELKRTVAAPSVFIFPPSDEQLKSGTASVVCLLNNFYPREAKVQWKVDNALQSGNSQESVTEQDSKDSTYSLSSTLTLSKADYEKHKVYACEVTHQGLSSPVTKSFNRGEC
heavy: B1 heavy
notes: also called antibody TD-H
B3: TD-F (bispecific antibody, human IgG1, kappa)
light: EVQLVQSGAEVKKPGATVKISCKVSGYSITDYLLHWVQQAPGKCLEWMGWIDPEDAKTKYGQKFQSRVTITADTSTDTAYMELSSLRSEDTAVYYCAANSGTGTMDAWGQGTLVTVSSGGGGSGGGGSGGGGSDIVMTQSPATLSVSPGERATLSCKASQNVGSNVDWYQQKPGQSPRVLIYKASIRYTGIPARFSGSGSGTEFTLTISILQSEDFAVYFCMQSKSYPITFGCGTKLEIKGGGGSGGGGSGGGGSDIVMTQSPSSLAVSLGERATINCKSSQSLLYSNDQKNYLAWYQQKPGQSPKLLIYWASTRESGVPDRFSGSGSGTDFTLTISSLQAEDVAVYYCQQYFIYPLTFGGGTKLELKRTVAAPSVFIFPPSDEQLKSGTASVVCLLNNFYPREAKVQWKVDNALQSGNSQESVTEQDSKDSTYSLSSTLTLSKADYEKHKVYACEVTHQGLSSPVTKSFNRGEC
heavy: B1 heavy
notes: also called antibody TD-F
B4: TD-E (bispecific antibody, human IgG1, kappa)
light: DIVMTQSPSSLAVSLGERATINCKSSQSLLYSNDQKNYLAWYQQKPGQSPKLLIYWASTRESGVPDRFSGSGSGTDFTLTISSLQAEDVAVYYCQQYFIYPLTFGGGTKLELKRTVAAPSVFIFPPSDEQLKSGTASVVCLLNNFYPREAKVQWKVDNALQSGNSQESVTEQDSKDSTYSLSSTLTLSKADYEKHKVYACEVTHQGLSSPVTKSFNRGECGGGGSGGGGSEVQLVQSGAEVKKPGATVKISCKVSGYSITDYLLHWVQQAPGKCLEWMGWIDPEDAKTKYGQKFQSRVTITADTSTDTAYMELSSLRSEDTAVYYCAANSGTGTMDAWGQGTLVTVSSGGGGSGGGGSGGGGSDIVMTQSPATLSVSPGERATLSCKASQNVGSNVDWYQQKPGQSPRVLIYKASIRYTGIPARFSGSGSGTEFTLTISILQSEDFAVYFCMQSKSYPITFGCGTKLEIK
heavy: B1 heavy
notes: also called antibody TD-E
B5: TD-C (bispecific antibody, human IgG1, kappa)
light: DIVMTQSPSSLAVSLGERATINCKSSQSLLYSNDQKNYLAWYQQKPGQSPKLLIYWASTRESGVPDRFSGSGSGTDFTLTISSLQAEDVAVYYCQQYFIYPLTFGGGTKLELKRTVAAPSVFIFPPSDEQLKSGTASVVCLLNNFYPREAKVQWKVDNALQSGNSQESVTEQDSKDSTYSLSSTLTLSKADYEKHKVYACEVTHQGLSSPVTKSFNRGEC
heavy: EVQLQESGPGLVKPSQTLSLTCTVSGYSITSGYTWHWIRQFPGNKLEWIGHIQYTGNTKYNPSLESRITISRDTSKNQFSLKLSSVTAADTATYYCARGSTNSNDYWGQGTLVTVSS[not shown - human IgG1 constant region]GGGGSGGGGSGGGGSEVQLVESGGGLVQPGGSLRLSCAASGSRLDYYAVAWFRQAPGKEREEVSCITYSGGSTNYAESVKGRFTISRDNSKNTLYLQMNSLRAEDTAVYYCTTEPYGSSCPLSGYDTWGQGTLVTVSS
notes: also called antibody TD-C
B6: TD-B (bispecific antibody, human IgG1, kappa)
light: B5 light
heavy: EVQLVQSGAEVKKPGATVKISCKVSGYSITDYLLHWVQQAPGKCLEWMGWIDPEDAKTKYGQKFQSRVTITADTSTDTAYMELSSLRSEDTAVYYCAANSGTGTMDAWGQGTLVTVSSGGGGSGGGGSGGGGSDIVMTQSPATLSVSPGERATLSCKASQNVGSNVDWYQQKPGQSPRVLIYKASIRYTGIPARFSGSGSGTEFTLTISILQSEDFAVYFCMQSKSYPITFGCGTKLEIKGGGGSGGGGSGGGGSEVQLQESGPGLVKPSQTLSLTCTVSGYSITSGYTWHWIRQFPGNKLEWIGHIQYTGNTKYNPSLESRITISRDTSKNQFSLKLSSVTAADTATYYCARGSTNSNDYWGQGTLVTVSS[not shown - human IgG1 constant region]
notes: also called antibody TD-B

How the values were obtained:
[1] = target: T1, human CD24 on MCF-7 tumor cells; experiment: flow cytometry on MCF-7 cells, 150 nM antibody, anti-human IgG Fc detection
Protocol: 100 μL of dilution was added to the blank control group, and 100 μL of fluorescent secondary antibody dilution was added to the rest of the sample groups respectively. After incubation for 0.5 h at room temperature and 4° C. protected from light, PBS was added to wash and centrifuged (3000 rpm, 3 min) twice. After discarding the supernatant, 80 μL of the dilution was added and resuspended.

[2] = target: T2, Human-TNFR2-His (manufacturer: SINO, …); experiment: flow cytometry, bridging: MCF-7 cells (human CD24) + 150 nM antibody + human TNFR2-His, anti-His FITC detection
Protocol: Pre-cooled dilution was added and washed once, centrifuged (3000 rpm, 3 min), and the supernatant was discarded, and the cells were harvested. Fluorescent secondary antibody Anti-6X-his tag antibody (FITC) (manufacturer: abcam, Cat. No.: ab1206, Lot No.: GR3420599-3) was taken and diluted at the used concentration of 1:500. 100 μL of dilution was added to the blank control group, and 100 μL of fluorescent secondary antibody dilution was added to the rest of the sample groups respectively. After incubation for 0.5 h at room temperature and 4° C. protected from light, PBS was added to wash and centrifuged (3000 rpm, 3 min) twice. After discarding the supernatant, 80 μL of the dilution was added and resuspended.

[3] = target: T2, Human-TNFR2-His (manufacturer: SINO, …); experiment: BLI, antibody on AHC sensor, 100 nM human-TNFR2-His in solution
Protocol: The AHC sensor was soaked in 0.02% PBST (0.02% Tween 20, pH 7.4, 1×PBS) as a buffer for 600 s to remove the sucrose covering the sensor surface. The AHC sensor was equilibrated with 0.02% PBST (0.02% Tween 20, pH 7.4, 1×PBS) as a buffer for 60 s, the antibody in the sample plate was solidified for 300 s, and the secondary equilibration buffer was used for 180 s. 100 nM human-TNFR2-His (manufacturer: SINO, CAT: 10417-H08H, LOT: LC12SE2902) protein was bound to the antibody for 300 s and then dissociated for 600 s. After dissociation, 10 mM glycine (pH 2.0) was used as a regeneration buffer for 30 s. The sensor was regenerated with 10 mM glycine (pH 2.0).

| Binder | E1 Mean PE-A [1] | E1 Mean FITC-A [2] | Kd [3] | koff [3] | kon [3] |
| --- | --- | --- | --- | --- | --- |
| B1 | 4.02e+06 | 6.67e+06 | 2.54 nM | 0.000383 s⁻¹ | 151000 M⁻¹ s⁻¹ |
| B2 | 4.14e+06 | 3.12e+06 | 1.28 nM | 0.000634 s⁻¹ | 494000 M⁻¹ s⁻¹ |
| B3 | 3.72e+06 | 2.61e+06 | – | – | – |
| B4 | 3.3e+06 | 5.59e+06 | – | – | – |
| B5 | 3.15e+06 | 7.2e+06 | 2.38 nM | 0.000652 s⁻¹ | 275000 M⁻¹ s⁻¹ |
| B6 | 4.02e+06 | 5.23e+06 | – | – | – |
